Results published in the supplement of paper PMC8728848.
The list shows a part of the results.

Assays:
Test in all cases: glycan array binding signal (z-score within array); higher = stronger binding
Conditions in all cases: glycan notation: IUPAC condensed, linker removed
[1] = target: GlcNAc(b1-2)Gal(b1-3)GlcNAc
Summary of the method: (§1)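 Columns mapping to the same glycan were averaged after glycan names were converted to IUPAC-condensed notation. The data come from 3228 arrays in the Consortium for Functional Glycomics database, limited to those with an available protein sequence. Binding is reported as a within-array Z-score averaged across arrays of one protein sequence and across linkers.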

[2] = target: GlcNAc(b1-2)Man(a1-3)[GlcNAc(b1-2)Man(a1-6)]Man(b1-4)GlcNAc(b1-4)GlcNAc
Summary of the method: as §1

GlcNAc(b1-3)Gal = target: GlcNAc(b1-3)Gal
Summary of the method: as §1

[3] = target: GlcNAc(b1-3)Gal(b1-3)GalNAc
Summary of the method: as §1

GlcNAc(b1-3)Gal(b1-4)Glc = target: GlcNAc(b1-3)Gal(b1-4)Glc
Summary of the method: as §1

[4] = target: GlcNAc(b1-3)Gal(b1-4)GlcNAc
Summary of the method: as §1

[5] = target: GlcNAc(b1-3)Gal(b1-4)GlcNAc(b1-3)Gal(b1-4)GlcNAc
Summary of the method: as §1

GlcNAc(b1-3)GalNAc = target: GlcNAc(b1-3)GalNAc
Summary of the method: as §1

[6] = target: GlcNAc(b1-3)[GlcNAc(b1-4)][GlcNAc(b1-6)]GlcNAc
Summary of the method: as §1

[7] = target: GlcNAc(b1-3)[GlcNAc(b1-6)]Gal(b1-4)GlcNAc
Summary of the method: as §1

[8] = target: GlcNAc(b1-3)[GlcNAc(b1-6)]GlcNAc
Summary of the method: as §1

[9] = target: GlcNAc(b1-4)Gal(b1-4)GlcNAc
Summary of the method: as §1

[10] = target: GlcNAc(b1-4)GlcNAc(b1-4)GlcNAc
Summary of the method: as §1

[11] = target: GlcNAc(b1-4)GlcNAc(b1-4)GlcNAc(b1-4)GlcNAc(b1-4)GlcNAc
Summary of the method: as §1

[12] = target: GlcNAc(b1-4)GlcNAc(b1-4)GlcNAc(b1-4)GlcNAc(b1-4)GlcNAc(b1-4)GlcNAc
Summary of the method: as §1

[13] = target: GlcNAc(b1-4)[GlcNAc(b1-6)]GalNAc
Summary of the method: as §1

[14] = target: GlcNAc(b1-6)Gal(b1-4)GlcNAc
Summary of the method: as §1

GlcNAc(b1-6)GalNAc = target: GlcNAc(b1-6)GalNAc
Summary of the method: as §1

Kdn(a2-3)Gal(b1-3)GlcNAc = target: Kdn(a2-3)Gal(b1-3)GlcNAc
Summary of the method: as §1

Kdn(a2-3)Gal(b1-4)GlcNAc = target: Kdn(a2-3)Gal(b1-4)GlcNAc
Summary of the method: as §1

[15] = target: Man(a1-2)Man(a1-2)Man(a1-3)Man
Summary of the method: as §1

[16] = target: Man(a1-2)Man(a1-2)Man(a1-3)[Man(a1-2)Man(a1-3)[Man(a1-2)Man(a1-6)]Man(a1-6)]Man(b1-4)GlcNAc(b1-4)GlcNAc
Summary of the method: as §1

[17] = target: Man(a1-2)Man(a1-2)Man(a1-3)[Man(a1-2)Man(a1-6)[Man(a1-3)]Man(a1-6)]Man(b1-4)GlcNAc(b1-4)GlcNAc
Summary of the method: as §1

[18] = target: Man(a1-2)Man(a1-2)Man(a1-6)[Man(a1-3)]Man
Summary of the method: as §1

Man(a1-2)Man(a1-3)Man = target: Man(a1-2)Man(a1-3)Man
Summary of the method: as §1

[19] = target: Man(a1-2)Man(a1-3)[Man(a1-2)Man(a1-6)]Man
Summary of the method: as §1

[20] = target: Man(a1-2)Man(a1-3)[Man(a1-3)[Man(a1-6)]Man(a1-6)]Man(b1-4)GlcNAc(b1-4)GlcNAc
Summary of the method: as §1

[21] = target: Man(a1-2)Man(a1-3)[Man(a1-6)]Man(a1-6)[Man(a1-2)Man(a1-3)]Man(b1-4)GlcNAc(b1-4)GlcNAc
Summary of the method: as §1

Man(a1-3)[Man(a1-6)]Man = target: Man(a1-3)[Man(a1-6)]Man
Summary of the method: as §1

[22] = target: Man(a1-3)[Man(a1-6)]Man(a1-6)[Man(a1-3)]Man(b1-4)GlcNAc(b1-4)GlcNAc
Summary of the method: as §1

[23] = target: Man(a1-3)[Man(a1-6)]Man(b1-4)GlcNAc(b1-4)GlcNAc
Summary of the method: as §1

Man(b1-4)GlcNAc = target: Man(b1-4)GlcNAc
Summary of the method: as §1

Neu5Ac(a2-3)Gal = target: Neu5Ac(a2-3)Gal
Summary of the method: as §1

[24] = target: Neu5Ac(a2-3)Gal(b1-3)GalNAc
Summary of the method: as §1

[25] = target: Neu5Ac(a2-3)Gal(b1-3)GalNAc(b1-3)Gal(a1-4)Gal(b1-4)Glc
Summary of the method: as §1

[26] = target: Neu5Ac(a2-3)Gal(b1-3)GalNAc(b1-4)[Neu5Ac(a2-3)]Gal(b1-4)Glc
Summary of the method: as §1

[27] = target: Neu5Ac(a2-3)Gal(b1-3)GalNAc6S
Summary of the method: as §1

B1: FBG5 (Homo sapiens), Q8NI29 (protein)
chain: MGASVSRGRAARVPAPEPEPEEALDLSQLPPELLLVVLSHVPPRTLLGRCRQVCRGWRALVDGQALWLLILARDHGATGRALLHLARSCQSPARNARPCPLGRFCARRPIGRNLIRNPCGQEGLRKWMVQHGGDGWVVEENRTTVPGAPSQTCFVTSFSWCCKKQVLDLEEEGLWPELLDSGRIEICVSDWWGARHDSGCMYRLLVQLLDANQTVLDKFSAVPDPIPQWNNNACLHVTHVFSNIKMGVRFVSFEHRGQDTQFWAGHYGARVTNSSVIVRVRLS
For B1, the “glycan array binding signal (z-score)” value [1] was -0.224, the “glycan array binding signal (z-score)” value [2] was -0.131 and the “glycan array binding signal (z-score)” value (GlcNAc(b1-3)Gal) was -0.119. For the same binder, the “glycan array binding signal (z-score)” value [3] was -0.102, the “glycan array binding signal (z-score)” value (GlcNAc(b1-3)Gal(b1-4)Glc) was -0.154 and the “glycan array binding signal (z-score)” value [4] was -0.128. The “glycan array binding signal (z-score)” value [5] was -0.201, the “glycan array binding signal (z-score)” value (GlcNAc(b1-3)GalNAc) was -0.252 and the “glycan array binding signal (z-score)” value [6] was -0.095. The “glycan array binding signal (z-score)” value [7] was -0.151, the “glycan array binding signal (z-score)” value [8] was -0.132 and the “glycan array binding signal (z-score)” value [9] was -0.095. The “glycan array binding signal (z-score)” value [10] was -0.141, the “glycan array binding signal (z-score)” value [11] was 0.055 and the “glycan array binding signal (z-score)” value [12] was -0.188. The “glycan array binding signal (z-score)” value [13] was -0.211, the “glycan array binding signal (z-score)” value [14] was -0.14 and the “glycan array binding signal (z-score)” value (GlcNAc(b1-6)GalNAc) was -0.261. For the same binder, the “glycan array binding signal (z-score)” value (Kdn(a2-3)Gal(b1-3)GlcNAc) was -0.195, the “glycan array binding signal (z-score)” value (Kdn(a2-3)Gal(b1-4)GlcNAc) was -0.131 and the “glycan array binding signal (z-score)” value [15] was -0.141. The “glycan array binding signal (z-score)” value [16] was -0.225, the “glycan array binding signal (z-score)” value [17] was -0.066 and the “glycan array binding signal (z-score)” value [18] was -0.184. The “glycan array binding signal (z-score)” value (Man(a1-2)Man(a1-3)Man) was -0.075, the “glycan array binding signal (z-score)” value [19] was -0.203 and the “glycan array binding signal (z-score)” value [20] was -0.018. The “glycan array binding signal (z-score)” value [21] was -0.112, the “glycan array binding signal (z-score)” value (Man(a1-3)[Man(a1-6)]Man) was -0.131 and the “glycan array binding signal (z-score)” value [22] was 0.012. The “glycan array binding signal (z-score)” value [23] was 0.004, the “glycan array binding signal (z-score)” value (Man(b1-4)GlcNAc) was -0.205 and the “glycan array binding signal (z-score)” value (Neu5Ac(a2-3)Gal) was -0.211. For the same binder, the “glycan array binding signal (z-score)” value [24] was -0.098, the “glycan array binding signal (z-score)” value [25] was -0.209 and the “glycan array binding signal (z-score)” value [26] was -0.147. The “glycan array binding signal (z-score)” value [27] was -0.234.
